PubChem BioAssay AID894 (National Center for Advancing Translational Sciences (NCATS), 2007)
Hit rate of the full screen: of about 150,000 compounds, about 6,500 (4.3%) were called active. The inconclusive results got no clear call from the source; some entries with a clear call stand among them for comparison. Calls follow the shape of the dose curve; as a rule, active = well fitted inhibition curve with a large enough effect (not every such curve was filed as active); inconclusive = small, poorly fitted or top-dose-only effect, or another doubt; inactive = no such curve, though single readings can be large or run the other way. Potencies of inconclusive entries are left out as doubtful fits.

biological target: 15-hydroxyprostaglandin dehydrogenase [NAD(+)] (Homo sapiens) (UniProt P15428); assay: qHTS Assay for Inhibitors of HPGD (15-Hydroxyprostaglandin Dehydrogenase); conditions: purified HPGD, NADH fluorescence kinetic, PGE2 substrate; activity change, negative = inhibition: active compounds read low
Summary of the method: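 NADH formation kinetics: reaction with 30 uM PGE2 and 1 mM NAD+ (final), 20 nM enzyme, Tris-HCl pH 8 with Tween 20, after 15 min compound preincubation at room temperature. Fluorescence change, last versus first of five reads.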
% is scaled to controls: 0 for no effect and ±100 for the full control effect; potency is read from the fitted curve at half-maximal effect; tags tell the direction and shape of the fitted curve.

UniProt P15428, sequence (P15428 whole entry, looked up): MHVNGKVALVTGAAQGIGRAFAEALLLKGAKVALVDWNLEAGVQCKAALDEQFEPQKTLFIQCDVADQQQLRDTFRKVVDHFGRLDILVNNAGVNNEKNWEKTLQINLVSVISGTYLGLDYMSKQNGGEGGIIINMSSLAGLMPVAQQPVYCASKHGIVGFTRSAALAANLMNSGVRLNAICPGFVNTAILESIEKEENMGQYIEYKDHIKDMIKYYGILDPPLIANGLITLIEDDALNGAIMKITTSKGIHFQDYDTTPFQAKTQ

Compound | Potency | activity change, negative = inhibition
Cc1nc2cc(N3CCCCC3)c(NC(=O)c3cccnc3)cc2c(=O)n1Cc1ccccc1 | inconclusive [inhibitor, single point] | –
CCc1ccc2[nH]c(=O)c(CN(CCCN3CCOCC3)C(=O)Nc3ccc(F)cc3)cc2c1 | inconclusive [inhibitor, partial curve] | –
Cc1cc(C(=O)N/N=C/c2cc(N=Nc3ccccc3)ccc2O)n[nH]1 | – | inactive: -21.7%
O=C1NC2(CCCCC2)NN1c1ccccc1 | – | inactive: -6.97%
CCNC(=O)CCc1nc(-c2ccc(C(C)(C)C)cc2)no1 | inconclusive [inhibitor, partial curve, poor fit] | –
Cc1cc(=O)oc2cc(OC(C)C(=O)Nc3ccc(N4CCOCC4)cc3)ccc12 (stereo unspecified) | inconclusive [inhibitor, partial curve, poor fit] | –
O=C(CC1CCCCC1)NCc1ccccn1 | inconclusive [inhibitor, partial curve] | –
O=C1C2[C@@H](c3ccccc3)N[C@@H](c3ccccc3)C1[C@H](c1ccccc1)N[C@H]2c1ccccc1 | – | inactive: -16.8%
Cc1ccc(S(=O)(=O)Nn2c(C)ccc2C)cc1 | inconclusive [inhibitor, single point] | –
COc1ccc2oc(-c3ccc(NC(=O)c4ccc(N5CCOCC5)c([N+](=O)[O-])c4)cc3)nc2c1 | – | inactive: -9.71%
COc1ccc2[nH]c(=O)c(CN(C(=O)C3CCCO3)c3cccc(C)c3)cc2c1 (stereo unspecified) | inconclusive [inhibitor, single point] | –
CCOC(=O)/C=C1\NC(C)(C)Cc2cc(OC)c(O)cc21 | active: 35.5 µM | –
Cc1ccc(-n2nc(C)c3c(C)c(CCC(=O)NCc4ccccc4)c(C)nc32)cc1 | inconclusive [inhibitor, partial curve] | –
O=C(/C=C/c1ccc(Br)cc1)NC(=S)Nc1ccc(S(=O)(=O)Nc2nccs2)cc1 | – | inactive: -2.12%
Cc1cccc(Nc2nnc(SCC(=O)NC3CCCc4ccccc43)s2)c1C (stereo unspecified) | inconclusive [inhibitor, single point] | –
COc1ccc(-c2cc(C(=O)OC(C)C(=O)Nc3c(C)n(C)n(-c4ccccc4)c3=O)c3ccccc3n2)cc1 (stereo unspecified) | inconclusive [inhibitor, single point] | –
Cc1cc(=O)n2c3c(sc2n1)C(=O)N(Cc1ccccc1)C3=O | inconclusive [inhibitor, partial curve] | –
Cc1cc(C)cc(-n2c(C)cc(C(=S)N3CCOCC3)c2C)c1 | active: 3.98 µM | –
NC(=O)c1oc2ccc(Cl)cc2c1N | inconclusive [inhibitor, partial curve] | –
O=C(CCSc1ccc(Cl)cc1)NC1CCCCC1 | active: 4.47 µM | –
CC(=O)Nc1cc2ccc(OC(C)=O)cc2oc1=O | inconclusive [inhibitor, partial curve] | –
COc1ccc(-c2cc(C)nc3nc(N)nn23)cc1 | inconclusive [inhibitor, partial curve] | –
Nn1cnnc1N/N=C/c1cc(Br)cc(Br)c1O | inconclusive [inhibitor, single point] | –
O=C1CCCC2=C1C(c1ccccc1)C1C(=O)c3ccccc3C1=N2 (stereo unspecified) | inconclusive [inhibitor, partial curve] | –

Compound | Potency | activity change, negative = inhibition
O=C(NC(=S)Nc1ccc(N2CCOCC2)cc1)c1cncc(Br)c1 | active: 17.8 µM | –
CC(=O)c1c(C)[nH]c(C(=O)Nc2cc(C)cc(C)c2)c1C | – | inactive: 2.33%
Cc1ccc2nc(NC(=O)CSc3nc4c(c(=O)n3C)SC(C)C4)sc2c1 (stereo unspecified) | inconclusive [inhibitor, partial curve] | –
Cc1ccsc1/C=C1\SC(N2CCOCC2)=NC1=O | inconclusive [inhibitor, partial curve] | –
CCOC(=O)c1ccc(N=CC2=C(O)CC(C)(C)CC2=O)cc1 | inconclusive [inhibitor, single point] | –
CC1CCC(C(=O)NC(C(=O)N2CCN(c3ccccn3)CC2)C(C)C)CC1 (stereo unspecified) | – | inactive: -24.1%
Cn1c(=O)[nH]c(=O)c2c1nc(N1CCCCCC1)n2CCCSc1nnnn1-c1ccccc1 | – | inactive: -27.7%
C/C=C/c1ccc(OCCCCOc2c(OC)cccc2OC)c(OC)c1 | inconclusive [inhibitor, partial curve] | –
C/C=C1/NN(CCCN2CCN(c3cccc(Cl)c3)CC2)C(=O)N1CCOc1ccccc1 | – | inactive: -4.89%
C/C=C(/C)C(=O)O[C@@H]1[C@H](OC(C)=O)c2c(ccc3ccc(=O)oc23)OC1(C)C | inconclusive [inhibitor, partial curve] | –
CN(C)c1ccc(/C=N/NC(=O)Cn2nnc3ccccc32)cc1 | inconclusive [inhibitor, partial curve] | –
c1ccc(-c2cc(-c3nn4c(-c5ccco5)nnc4s3)c3ccccc3n2)cc1 | inconclusive [inhibitor, partial curve] | –
CC1CC(=O)C2=C(C1)OC(N)=C(C#N)C2c1coc2ccccc2c1=O (stereo unspecified) | – | inactive: -6.61%
Cc1c2ccccc2c(C)c2c1ccc1ccccc12 | inconclusive [inhibitor, partial curve] | –
CCOc1cc(/C=N/NC(=O)COc2ccc(Cl)cc2)ccc1OS(=O)(=O)c1ccccc1 | – | inactive: -27.2%
COc1ccc(C/C(N)=N/O)cc1 | – | inactive: -1.8%
COc1ccc(S(=O)(=O)Nc2ccccc2C(=O)O)cc1 | inconclusive [inhibitor, partial curve] | –
COc1ccc(N2CSC3=C(C#N)C(c4cc(OC)c(OC)cc4OC)CC(=O)N3C2)c(OC)c1 (stereo unspecified) | active: 10 µM | –
N#CC1=C2SCN(c3ccccc3)CN2C(=O)CC1c1c(Cl)cccc1Cl (stereo unspecified) | active: 7.94 µM | –
CCCc1c(C)[nH]c2ccc(NC(C)=O)cc2c1=O | inconclusive [inhibitor, partial curve] | –
CC(C)CCCC(C)C1CCC2C3CC=C4CC(=O)CC[C@@]4(C)C3CC[C@@]12C (stereo partly specified) | – | inactive: -9.83%
Cc1cccc(NS(=O)(=O)Cc2ccccc2)n1 | inconclusive [inhibitor, partial curve] | –
O=c1cc(-c2ccccc2)oc2c1ccc1ccccc12 | inconclusive [inhibitor, partial curve] | –
CCOC(=O)c1[nH]c(C)c(/C=N/O)c1C | inconclusive [inhibitor, partial curve, poor fit] | –

Compound | Potency | activity change, negative = inhibition
CCCCCCCNC(=O)c1ccc(N2CCC3(CC2)OCCO3)c([N+](=O)[O-])c1 | – | inactive: -13.6%
COc1ccc(OC)c(Nc2nc(C3CC3)nc3c2nnn3Cc2ccccc2)c1 | inconclusive [inhibitor, partial curve] | –
CC1(C)Oc2ccc3ccc(=O)oc3c2CC1O (stereo unspecified) | inconclusive [inhibitor, partial curve] | –
COc1ccc2[nH]c(=O)c(CN(Cc3ccco3)C(=O)c3ccccc3)cc2c1 | inconclusive [inhibitor, partial curve] | –
O=C(NC1=NCCS1)c1cc(-c2cccc(Br)c2)nc2ccccc12 | inconclusive [inhibitor, partial curve] | –
c1ccc(OCc2nn3c(-c4ccncc4)nnc3s2)cc1 | – | inactive: -28.1%
O=C1C2CCCN2c2ccc(S(=O)(=O)N3CCOCC3)cc2N1Cc1ccccc1F (stereo unspecified) | – | inactive: -14.9%
OC(c1ccc(OCc2ccccc2)cc1)c1nnc(-c2ccccc2)o1 (stereo unspecified) | active: 20 µM | –
Cc1nn(CCc2n[nH]c(=S)n2C2CCCCC2)c(C)c1Br | active: 25.1 µM | –
Clc1ccc(OCc2nn3c(C4CCCCC4)nnc3s2)cc1 | active: 20 µM | –
CCOC(=O)c1c(-c2ccc(C)o2)csc1NC(=O)CSc1nncs1 | active: 20 µM | –
O=C(c1ccccc1)c1ccc2n1CC[C@H]2C(=O)O | – | inactive: -17.3%
Cc1ccc2oc(=O)c3cc(C(=O)NCCCN4CCc5ccccc5C4)sc3c2c1 | – | inactive: -21.6%
Cc1[nH]c2ccc3c(ncn3CCC#N)c2c1C | – | inactive: -10%
CSC1=N/C(=C\c2ccc(C)o2)C(=O)S1 | inconclusive [inhibitor, partial curve] | –
CCN(CC)CCCNc1oc(-c2ccc(OC)c(OC)c2)nc1C#N | inconclusive [inhibitor, partial curve] | –
O=C(CN1CCC(C(=O)c2ccc3c(c2)OCCO3)CC1)NC1CCCC1 | inconclusive [inhibitor, partial curve] | –
Cc1ccccc1-c1nc(CSc2nc3c(c(=O)[nH]2)CCC3)c(C)o1 | active: 4.47 µM | –
CCOC(=O)CC(=O)CSc1nc2sc(C)cc2c(=O)n1Cc1ccco1 | active: 28.2 µM | –
CCOC(=O)c1c(NC(=O)c2ccoc2C)sc2c1CCC2 | inconclusive [inhibitor, partial curve] | –
Cn1c(-c2ccc3c(c2)OCO3)cnc1NCc1cccc(Cl)c1 | inconclusive [inhibitor, partial curve] | –
COc1ccc(/C=N/NC(=O)c2cccc(Br)c2)cc1CSc1ccccn1 | inconclusive [inhibitor, partial curve] | –
O=C(Cn1c(-c2ccco2)nc2ccccc21)N1CCCCC1 | inconclusive [inhibitor, partial curve] | –
